Laboratory results from PubChem BioAssay AID2060897 (Molecular Pharmacology Branch, DTP, NCI, 2025).
A number of entries come with more than one value. They are shown here; other results are not. The source may hold further records. Results that share an entry are repeats in other runs, samples, wells, individuals or studies. Marks such as (2×) give the number of equal values in this list. Marks such as [2022-09] give the month of the run.

System: 966289-007-R4-J1-PDC complex spheroid viability
Assay: Anticancer human tumor 966289-007-R4-J1-PDC patient-derived pancreatic adenocarcinoma cell line growth inhibition [RAS]
Conditions: for viability, T/C: stronger effect = lower value; for IC50: compound alone
From the text: RAS pathway inhibitors in Combinations in Complex Spheroids
A high-throughput screen of multi-cell type tumor spheroids was designed to identify active combinations of RAS pathway inhibitors and targeted small molecules. Complex spheroids include a stromal component modeled by human endothelial cells (HUVEC) and fibroblasts modeled by human mesenchymal stem cells (MSCs). The concentration ranges selected for each drug and investigational agent were based upon clinically achievable concentrations if the clinical Cmax of the agent was known.
Compounds. The drugs and investigational agents: abemaciclib (NSC768073), cobimetinib (NSC768068), divarasib (GDC6063, NSC841802), docetaxel (NSC628503), GDC-1971 (RLY-1971, NSC841576), gemcitabine (NSC613327), inavolisib (NSC800729), ipatasertib (NSC767898), KB-0742 (NSC834161), MRTX-1133 (NSC836407), osimertinib (NSC779217), RMC-4630 (NSC839698), RMC-6236 (NSC851965), RMC-6291 (NSC852671), Ro-3306 (NSC812927), sapanisertib (NSC764658), SN-38 (NSC673596), staurosporine (NSC755774), SY5609 (NSC837396), and tovorafenib (DAY101, NSC766906), were obtained from the National Cancer Institute (NCI) Developmental Therapeutics Program Chemical Repository. The FDA-approved anticancer drug set is available from the NCI Developmental Therapeutics Program. […] The stock solutions were prepared in dimethyl sulfoxide (DMSO, Sigma-Aldrich, St. Louis, MO, cat. D2650) at 800-fold the tested concentration and stored at -70 degrees C prior to their use. All drugs and investigational agents were tested over a range starting from a high concentration at or near the clinical Cmax and decreasing in half-log increments. If the clinical Cmax for an agent had not been determined, the highest concentration tested was 10 microM.
Cell Culture. All cells were maintained in an incubator at 37 degrees C and 5% CO2 with 95% humidity. The PDC lines were cultured according to standard operating procedures established by the NCI PDMR. All PDCs were thawed and cultured in Matrigel-coated flasks prepared with a working solution of 1X Ham's F-12 nutrient mix, without supplementation (Invitrogen, Waltham, MA, cat. 11765054), 100 U/mL penicillin-streptomycin (Invitrogen, cat. 15140122), and 2.5% Matrigel (Corning Inc., Corning, NY, cat. 354248) for the first three passages. The 362531-283-R-J2-PDC and 782815-120-R-J1-PDC lines were cultured in 6C/Colon 1B media, which includes advanced DMEM/F-12 (Thermo Fisher Scientific, cat. 12634028), 10 mM HEPES (Thermo Fisher Scientific, cat. 15630080), 1X GlutaMAX supplement (Thermo Fisher Scientific, cat. 35050061), 0.1 mg/mL primocin (InvivoGen, San Diego, CA, cat. ant-pm-2), 10% defined fetal bovine serum, heat inactivated (HyClone Laboratories Inc., Logan, UT, cat. SH30070.03HI), 50% L-WRN conditioned media (ATCC, cat. CRL-3276), 1.25 mM N-Acetyl-L-cysteine (Sigma-Aldrich, cat. A9165), 10 mM nicotinamide (Sigma-Aldrich, cat. N0636), 1X B-27 supplement (Thermo Fisher Scientific, cat. 17504044), 1X N-2 supplement (Thermo Fisher Scientific, cat. 17502048), 50 ng/mL human EGF (Thermo Fisher Scientific, cat. PHG0311), and 10 microM Y-27632 dihydrochloride (Tocris Bioscience, cat. 1254). The K12877-001-R-J1-PDC line was cultured in 6I media, which includes all 6C/Colon 1B media plus 10 ng/mL human FGF-10 (PeproTech, cat. 100-26), 1 ng/mL human FGF-2 (PeproTech, cat. 100-18B), 1 µM prostaglandin E2 (Tocris Bioscience, cat. 2296), […] hydrocortisone (Sigma-Aldrich, cat. H4001), and […] bovine insulin (Sigma-Aldrich, cat. I6634). The K86415-001-R-J1-PDC line was cultured in 6D media, which includes all 6C/Colon 1B media components minus the L-WRN conditioned media. The 485176-168-R4-J1-PDC was cultured in PANC media, which includes all 6C/Colon 1B media plus 100 ng/mL human FGF-10 (PeproTech, cat. 100-26), 500 nM SB-431542 (Selleckchem, cat. S1067), and 10 nM gastrin (Tocris Bioscience, cat. 3006). […]
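Note: spheroids exposed to agents for one week before readout.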
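Throughout, for viability, T/C: percent viability relative to DMSO vehicle control wells as 100%.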

`CCc1c2c(nc3ccc(O)cc13)-c1cc3c(c(=O)n1C2)COC(=O)[C@]3(O)CC` was tested, and the viability, T/C (compound alone 0.000949 µM) was 115%, 90.8% [2024-05] and 85.6%, 75.5% [2024-06].

With `NC1c2ccccc2OC12CCN(c1cnc3c(N4CCCc5ncccc54)n[nH]c3n1)CC2` (centres undefined) the viability, T/C (compound alone 0.0316 µM) was 86.2%, 98.1% [2024-05] and 101%, 113% [2024-06] and the viability, T/C (compound alone 3.16 µM) was 78.5%, 95.2% [2024-05] and 117%, 102% [2024-06].

For `CC1(O)CCCC1n1c(=O)c(C(F)F)cc2cnc(NC3CCN(S(C)(=O)=O)CC3)nc21` (centres undefined), the viability, T/C (compound alone 0.0316 µM) was 110%, 92.4% [2024-05] and 121%, 115% [2024-06].

`CCN1CCN(Cc2ccc(Nc3ncc(F)c(-c4cc(F)c5nc(C)n(C(C)C)c5c4)n3)nc2)CC1` was tested, and the viability, T/C (compound alone 0.0316 µM) was 93.8%, 133% [2024-05] and 126%, 117% [2024-06] and the viability, T/C (compound alone 0.1 µM) was 87.2%, 91.5% [2024-05] and 118%, 96% [2024-06].

`O=C(c1ccc(F)c(F)c1Nc1ccc(I)cc1F)N1CC(O)([C@@H]2CCCCN2)C1` was tested, and the IC50 was > 1 µM, 695 nM [2024-05] and 499 nM, 573 nM [2024-06] and the viability, T/C (compound alone 1 µM) was 63%, 41.3% [2024-05] and 32.7%, 35.6% [2024-06].

With `C[C@@H](NC(=O)c1ncnc(N)c1Cl)c1ncc(C(=O)Nc2cc(C(F)(F)F)c(Cl)cn2)s1` the viability, T/C (compound alone 0.1 µM) was 69.5%, 74.7% [2024-05] and 116%, 117% [2024-06], the viability, T/C (compound alone 0.316 µM) was 105%, 116% [2024-05] and 115%, 132% [2024-06] and the viability, T/C (compound alone 1 µM) was 62.7%, 98% [2024-05] and 113%, 129% [2024-06]. For the same compound, the viability, T/C (compound alone 3.16 µM) was 61.4%, 59.9% [2024-05] and 119%, 120% [2024-06].

`CC(C)n1nc(-c2ccc3oc(N)nc3c2)c2c(N)ncnc21` was tested, and the viability, T/C (compound alone 0.000316 µM) was 103%, 77.8% [2024-05] and 107%, 86.6% [2024-06], the viability, T/C (compound alone 0.001 µM) was 86.5%, 74.3% [2024-05] and 90.3%, 101% [2024-06] and the viability, T/C (compound alone 0.00316 µM) was 106%, 145% [2024-05] and 121%, 108% [2024-06]. The viability, T/C (compound alone 0.01 µM) was 73.5%, 93.7% [2024-05] and 92.9%, 111% [2024-06].

In the case of `CC(Nc1ccc2c(c1)OCCn1cc(N3C(=O)OCC3C(F)F)nc1-2)C(N)=O` (centres undefined), the viability, T/C (compound alone 0.0316 µM) is reported as 117%, 132% [2024-05] and 96.7%, 102% [2024-06], the viability, T/C (compound alone 0.1 µM) is reported as 87.1%, 107% [2024-05] and 114%, 105% [2024-06] and the viability, T/C (compound alone 1 µM) is reported as 82.3%, 95.8% [2024-05] and 110%, 111% [2024-06]. The viability, T/C (compound alone 3.16 µM) was 87.9%, 98.5% [2024-05] and 107%, 113% [2024-06].

In the case of `Cc1nc(N2CCC3(CC2)COC(C)C3N)c(CO)nc1Sc1ccnc(N)c1Cl` (centres undefined), the viability, T/C (compound alone 0.0316 µM) is reported as 78.7%, 99% [2024-05] and 100%, 105% [2024-06], the viability, T/C (compound alone 0.1 µM) is reported as 62.1%, 73.4% [2024-05] and 99.8%, 111% [2024-06] and the viability, T/C (compound alone 3.16 µM) is reported as 60.8%, 87.8% [2024-05] and 94.2%, 90.9% [2024-06].

In the case of `CCC(CC)c1cc(NC2CCC(N)C2)n2nccc2n1` (centres undefined), the viability, T/C (compound alone 0.0316 µM) is reported as 104%, 75.6% [2024-05] and 100%, 96.7% [2024-06] and the viability, T/C (compound alone 1 µM) is reported as 74.2%, 83.7% [2024-05] and 113%, 132% [2024-06].

In the case of `C#Cc1c(F)ccc2cc(O)cc(-c3ncc4c(N5CC6CCC(C5)N6)nc(OCC56CCCN5CC(F)C6)nc4c3F)c12` (centres undefined), the viability, T/C (compound alone 0.0316 µM) is reported as 97.6, 122, 93.3, 108, 105, 104 (2×), 111%, the viability, T/C (compound alone 0.1 µM) is reported as 93.2, 121, 113, 106, 111, 102, 101, 110% and the viability, T/C (compound alone 1 µM) is reported as 104 (2×), 114, 92.7, 121, 106, 105, 120%. The viability, T/C (compound alone 10 µM) was 92.9, 85.9, 89.2, 106, 78.2, 87.6, 84.3, 93.7%.

With `CC(C)NCC(C(=O)N1CCN(c2ncnc3c2C(C)CC3O)CC1)c1ccc(Cl)cc1` (centres undefined) the viability, T/C (compound alone 0.1 µM) was 80.7%, 85% [2024-05] and 84.1%, 111% [2024-06].

`CCn1c(-c2cc(N3CCN(C)CC3)cnc2C(C)OC)c2c3cc(ccc31)-c1csc(n1)CC(NC(=O)C1CC1C)C(=O)N1CCCC(N1)C(=O)OCC(C)(C)C2` (centres undefined) was tested, and the viability, T/C (compound alone 0.003 µM) was 115, 102, 110, 107, 109, 125, 131, 96.5%, the viability, T/C (compound alone 0.00949 µM) was 111 (2×), 91, 118, 121, 107, 102, 108% and the viability, T/C (compound alone 0.03 µM) was 116, 95.8, 107 (2×), 83.3, 94.4, 103, 112%. For the same compound, the viability, T/C (compound alone 0.0949 µM) was 97.6, 113, 103, 92.8, 86.9, 90.8, 95.5, 93.1% and the viability, T/C (compound alone 0.3 µM) was 119, 84.7 (2×), 84.4, 73.7, 81.8, 80.2, 80.1%.

With `C=CC(=O)Nc1cc(Nc2nccc(-c3cn(C)c4ccccc34)n2)c(OC)cc1N(C)CCN(C)C` the viability, T/C (compound alone 0.00316 µM) was 95.2%, 80% [2024-05] and 105%, 108% [2024-06], the viability, T/C (compound alone 0.01 µM) was 97.9%, 74.7% [2024-05] and 93.5%, 101% [2024-06] and the viability, T/C (compound alone 0.1 µM) was 67.8%, 91.3% [2024-05] and 102%, 95.2% [2024-06]. For the same compound, the viability, T/C (compound alone 0.316 µM) was 61.2%, 72.1% [2024-05] and 94.3%, 104% [2024-06] and the viability, T/C (compound alone 1 µM) was 60.8%, 69.4% [2024-05] and 85.9%, 80.6% [2024-06].

In the case of `CCn1c(-c2cccnc2C(C)OC)c2c3cc(ccc31)N1CCOC(CC(NC(=O)C(C(C)C)N(C)C(=O)C3(F)CCN(C(=O)C#CC(C)(C)N(C)C)CC3)C(=O)N3CCCC(N3)C(=O)OCC(C)(C)C2)C1` (centres undefined), the viability, T/C (compound alone 0.000949 µM) is reported as 85.3, 94.3, 116, 93.4, 81.4, 101, 99.3, 92.8%, the viability, T/C (compound alone 0.003 µM) is reported as 112, 89, 106, 118, 95.1, 107 (2×), 115% and the viability, T/C (compound alone 0.00949 µM) is reported as 109, 84, 113, 85.8, 112, 106, 102, 100%. The viability, T/C (compound alone 0.03 µM) was 111, 99.4, 92.6, 96, 109, 99.9, 118, 101% and the viability, T/C (compound alone 0.3 µM) was 78.2, 94.9, 64.8, 72.4, 75.4, 70.8, 70, 65%.

In the case of `CC1(C)CCC(Nc2ncc(C(F)(F)F)c(-c3c[nH]c4c(P(C)(C)=O)c(C#N)ccc34)n2)CN1` (centres undefined), the IC50 is reported as 5.25 nM, 7.37 nM [2024-05] and 16.2 nM, 13 nM [2024-06], the viability, T/C (compound alone 0.000949 µM) is reported as 131%, 110% [2024-05] and 102%, 104% [2024-06] and the viability, T/C (compound alone 0.003 µM) is reported as 75.8%, 105% [2024-05] and 124%, 117% [2024-06]. For the same compound, the viability, T/C (compound alone 0.00949 µM) was 22.7%, 34.4% [2024-05] and 80.6%, 64.4% [2024-06].
